Laboratory results as given in the supplement of paper PMC8728848.
The list shows a part of the results.

What was measured:
Experiment in all cases: glycan array binding signal (z-score within array); higher = stronger binding
Conditions in all cases: glycan notation: IUPAC condensed, linker removed
[1] = target: Neu5Ac(a2-3)Gal(b1-3)GalNAc(b1-4)[Neu5Ac(a2-3)]Gal(b1-4)Glc
Outline: (§1)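 Glycan array binding is given as a within-array Z-score, which can be read as non-binding when negative. The arrays, 3228 of them, came from the Consortium for Functional Glycomics database and were retained only where the protein sequence was available. Z-scores were averaged across arrays of the same protein sequence at different concentrations or buffers and across linkers.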

[2] = target: Neu5Ac(a2-3)Gal(b1-3)GalNAc6S
Outline: as §1

[3] = target: Neu5Ac(a2-3)Gal(b1-3)GlcNAc
Outline: as §1

[4] = target: Neu5Ac(a2-3)Gal(b1-3)GlcNAc(b1-2)Man(a1-3)[Neu5Ac(a2-3)Gal(b1-3)GlcNAc(b1-2)Man(a1-6)]Man(b1-4)GlcNAc(b1-4)GlcNAc
Outline: as §1

[5] = target: Neu5Ac(a2-3)Gal(b1-3)GlcNAc(b1-3)Gal(b1-3)GlcNAc
Outline: as §1

[6] = target: Neu5Ac(a2-3)Gal(b1-3)GlcNAc(b1-3)Gal(b1-4)GlcNAc
Outline: as §1

[7] = target: Neu5Ac(a2-3)Gal(b1-3)GlcNAc(b1-3)GalNAc
Outline: as §1

[8] = target: Neu5Ac(a2-3)Gal(b1-3)GlcNAc6S
Outline: as §1

[9] = target: Neu5Ac(a2-3)Gal(b1-3)[Fuc(a1-4)]GlcNAc
Outline: as §1

[10] = target: Neu5Ac(a2-3)Gal(b1-3)[Fuc(a1-4)]GlcNAc(b1-3)Gal(b1-3)[Fuc(a1-4)]GlcNAc
Outline: as §1

[11] = target: Neu5Ac(a2-3)Gal(b1-3)[Fuc(a1-4)]GlcNAc(b1-3)Gal(b1-4)[Fuc(a1-3)]GlcNAc
Outline: as §1

[12] = target: Neu5Ac(a2-3)Gal(b1-3)[Neu5Ac(a2-3)Gal(b1-4)]GlcNAc
Outline: as §1

[13] = target: Neu5Ac(a2-3)Gal(b1-3)[Neu5Ac(a2-6)]GalNAc
Outline: as §1

Neu5Ac(a2-3)Gal(b1-4)Glc = target: Neu5Ac(a2-3)Gal(b1-4)Glc
Outline: as §1

[14] = target: Neu5Ac(a2-3)Gal(b1-4)GlcNAc
Outline: as §1

[15] = target: Neu5Ac(a2-3)Gal(b1-4)GlcNAc(b1-2)Man(a1-3)[GlcNAc(b1-2)Man(b1-4)GlcNAc(b1-2)Man(a1-6)]Man(b1-4)GlcNAc(b1-4)GlcNAc
Outline: as §1

[16] = target: Neu5Ac(a2-3)Gal(b1-4)GlcNAc(b1-2)Man(a1-3)[Neu5Ac(a2-6)Gal(b1-4)GlcNAc(b1-2)Man(a1-6)]Man(b1-4)GlcNAc(b1-4)GlcNAc
Outline: as §1

[17] = target: Neu5Ac(a2-3)Gal(b1-4)GlcNAc(b1-3)Gal(b1-3)GlcNAc
Outline: as §1

[18] = target: Neu5Ac(a2-3)Gal(b1-4)GlcNAc(b1-3)Gal(b1-4)GlcNAc
Outline: as §1

[19] = target: Neu5Ac(a2-3)Gal(b1-4)GlcNAc(b1-3)Gal(b1-4)GlcNAc(b1-3)Gal(b1-4)GlcNAc
Outline: as §1

[20] = target: Neu5Ac(a2-3)Gal(b1-4)GlcNAc(b1-3)Gal(b1-4)[Fuc(a1-3)]GlcNAc
Outline: as §1

[21] = target: Neu5Ac(a2-3)Gal(b1-4)GlcNAc(b1-3)GalNAc
Outline: as §1

[22] = target: Neu5Ac(a2-3)Gal(b1-4)GlcNAc(b1-6)[Gal(b1-3)]GalNAc
Outline: as §1

[23] = target: Neu5Ac(a2-3)Gal(b1-4)GlcNAc(b1-6)[Neu5Ac(a2-3)Gal(b1-3)]GalNAc
Outline: as §1

[24] = target: Neu5Ac(a2-3)Gal(b1-4)GlcNAc6S
Outline: as §1

[25] = target: Neu5Ac(a2-3)Gal(b1-4)[Fuc(a1-3)]GlcNAc
Outline: as §1

[26] = target: Neu5Ac(a2-3)Gal(b1-4)[Fuc(a1-3)]GlcNAc(b1-3)Gal
Outline: as §1

[27] = target: Neu5Ac(a2-3)Gal(b1-4)[Fuc(a1-3)]GlcNAc(b1-3)Gal(b1-4)GlcNAc
Outline: as §1

[28] = target: Neu5Ac(a2-3)Gal(b1-4)[Fuc(a1-3)]GlcNAc(b1-3)Gal(b1-4)[Fuc(a1-3)]GlcNAc(b1-3)Gal(b1-4)[Fuc(a1-3)]GlcNAc
Outline: as §1

[29] = target: Neu5Ac(a2-3)Gal(b1-4)[Fuc(a1-3)]GlcNAc(b1-3)GalNAc
Outline: as §1

[30] = target: Neu5Ac(a2-3)Gal(b1-4)[Fuc(a1-3)]GlcNAc(b1-6)[Gal(b1-3)]GalNAc
Outline: as §1

[31] = target: Neu5Ac(a2-3)Gal(b1-4)[Fuc(a1-3)]GlcNAc(b1-6)[Neu5Ac(a2-3)Gal(b1-3)]GalNAc
Outline: as §1

[32] = target: Neu5Ac(a2-3)Gal(b1-4)[Fuc(a1-3)]GlcNAc6S
Outline: as §1

[33] = target: Neu5Ac(a2-3)Gal6S(b1-4)GlcNAc
Outline: as §1

[34] = target: Neu5Ac(a2-3)Gal6S(b1-4)[Fuc(a1-3)]GlcNAc
Outline: as §1

Neu5Ac(a2-3)GalNAc = target: Neu5Ac(a2-3)GalNAc
Outline: as §1

[35] = target: Neu5Ac(a2-3)GalNAc(b1-4)GlcNAc
Outline: as §1

[36] = target: Neu5Ac(a2-3)[GalNAc(b1-4)]Gal(b1-4)Glc
Outline: as §1

[37] = target: Neu5Ac(a2-3)[GalNAc(b1-4)]Gal(b1-4)GlcNAc
Outline: as §1

[38] = target: Neu5Ac(a2-3)[GalNAc(b1-4)]Gal(b1-4)GlcNAc(b1-3)GalNAc
Outline: as §1

[39] = target: Neu5Ac(a2-3)[Neu5Ac(a2-6)]GalNAc
Outline: as §1

Neu5Ac(a2-6)Gal = target: Neu5Ac(a2-6)Gal
Outline: as §1

B1: Mincle (Homo sapiens), Q9ULY5 (protein)
chain: MNSSKSSETQCTERGCFSSQMFLWTVAGIPILFLSACFITRCVVTFRIFQTCDEKKFQLPENFTELSCYNYGSGSVKNCCPLNWEYFQSSCYFFSTDTISWALSLKNCSAMGAHLVVINSQEEQEFLSYKKPKMREFFIGLSDQVVEGQWQWVDGTPLTKSLSFWDVGEPNNIATLEDCATMRDSSNPRQNWNDVTCFLNYFRICEMVGINPLNKGKSL
- glycan array binding signal (z-score) [1]: 0.06
- glycan array binding signal (z-score) [2]: -0.008
- glycan array binding signal (z-score) [3]: -0.372
- glycan array binding signal (z-score) [4]: -0.71
- glycan array binding signal (z-score) [5]: -0.197
- glycan array binding signal (z-score) [6]: -0.575
- glycan array binding signal (z-score) [7]: -0.064
- glycan array binding signal (z-score) [8]: 0.06
- glycan array binding signal (z-score) [9]: -0.422
- glycan array binding signal (z-score) [10]: 0.088
- glycan array binding signal (z-score) [11]: -0.008
- glycan array binding signal (z-score) [12]: -0.483
- glycan array binding signal (z-score) [13]: -0.315
- glycan array binding signal (z-score) (Neu5Ac(a2-3)Gal(b1-4)Glc): -0.335
- glycan array binding signal (z-score) [14]: -0.149
- glycan array binding signal (z-score) [15]: 3.33
- glycan array binding signal (z-score) [16]: 2.53
- glycan array binding signal (z-score) [17]: -0.067
- glycan array binding signal (z-score) [18]: -0.667
- glycan array binding signal (z-score) [19]: -0.085
- glycan array binding signal (z-score) [20]: -0.372
- glycan array binding signal (z-score) [21]: -0.53
- glycan array binding signal (z-score) [22]: -0.344
- glycan array binding signal (z-score) [23]: -0.18
- glycan array binding signal (z-score) [24]: 0.158
- glycan array binding signal (z-score) [25]: 0.028
- glycan array binding signal (z-score) [26]: -0.49
- glycan array binding signal (z-score) [27]: 0.445
- glycan array binding signal (z-score) [28]: -0.324
- glycan array binding signal (z-score) [29]: 2.37
- glycan array binding signal (z-score) [30]: 0.075
- glycan array binding signal (z-score) [31]: -0.443
- glycan array binding signal (z-score) [32]: -0.464
- glycan array binding signal (z-score) [33]: -0.192
- glycan array binding signal (z-score) [34]: -0.014
- glycan array binding signal (z-score) (Neu5Ac(a2-3)GalNAc): -0.016
- glycan array binding signal (z-score) [35]: -0.219
- glycan array binding signal (z-score) [36]: -0.338
- glycan array binding signal (z-score) [37]: -0.034
- glycan array binding signal (z-score) [38]: -0.428
- glycan array binding signal (z-score) [39]: -0.51
- glycan array binding signal (z-score) (Neu5Ac(a2-6)Gal): 0.075
